Consider 97 variants from a collection of fitness landscapes (doi:10.1016/j.celrep.2020.107928).

Over roughly 81,000 sequences, “one-hybrid fitness for binding parS DNA” has its median near -0.17; the highest 2% begin near 0.51. Some of the results follow. Bounds are passed on as bounds.

The labels stand for the following.
B1: Caulobacter ParB omega fusion; a variant is named by its letters at X, in order, B8GW30 (parent)
chain: MESVVVGEPGMSEGRRGLGRGLSALLGEVDAAPAQAPGEQLGGSREAPIEILQRNPDQPRRTFREEDLEDLSNSIREKGVLQPILVRPSPDTAGEYQIVAGERAWRAAQRAGLKTVPIMVRELDDLAVLEIGIIENVQRADLNVLEEALSYKVLMEKFERTQENIAQTIGKSXSHVANXMRLLXLPDEVQSYLVSGELTAXHARAIAAAADPVALAKQIIEGGLSVRETEALARKAPNLSAGKSKGGRPPRVKDTDTQALESDLSSVLGLDVSIDHRGSTGTLTITYATLEQLDDLCNRLTRGI

Variants of B1 are the subject of the assay. Nature of the assay: one-hybrid fitness for binding parS DNA (scaled: cognate 1, non-cognate 0); higher = stronger binding. As to conditions: with parS DNA site. In short, it runs like this:
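Bacterial one-hybrid selection in E. coli USO rpoZ- hisB- pyrF- with a HIS3 reporter carrying the site 19 bp from the promoter, screening Caulobacter ParB libraries with four specificity codons randomised (NNS). Cells grew 48 hours at 37°C on M9-minus-histidine plus 0.1 mM IPTG and 5 mM 3-AT. Plasmids before and after selection were Illumina-sequenced, three replicate libraries pooled, and variants under 10 reads dropped. Fitness is the log change in variant-to-wild-type read ratio, rescaled to cognate 1, non-cognate 0.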
LIRN: the “one-hybrid fitness for binding parS DNA” value is no more than 0.2.
Turning to MVPR, the “one-hybrid fitness for binding parS DNA” value was no more than 0.2.
For the variant FPNM, the “one-hybrid fitness for binding parS DNA” value is no more than 0.2.
The result for PSAN reads no more than 0.2; that for PAPE, no more than 0.2.
The result for QVID reads no more than 0.2; that for CGAV, no more than 0.2.
Consider DGYW, for which the “one-hybrid fitness for binding parS DNA” value is no more than 0.2.
The result for TTPG reads no more than 0.2; that for RPHR, no more than 0.2; that for RYDF, no more than 0.2.
Next, QADS: no more than 0.2; QYRM: no more than 0.2.
The result for SCNT reads no more than 0.2; that for MISW, no more than 0.2.
Regarding WCHS, the “one-hybrid fitness for binding parS DNA” value was no more than 0.2.
The result for LATY reads no more than 0.2.
Next, PWDL: no more than 0.2.
For RVVW, the “one-hybrid fitness for binding parS DNA” value came out at 0.235.
In the case of PVSE, the “one-hybrid fitness for binding parS DNA” value is no more than 0.2.
In the case of NTLD, the “one-hybrid fitness for binding parS DNA” value was no more than 0.2.
As to AKQA, the “one-hybrid fitness for binding parS DNA” value was no more than 0.2.
The result for SAVI reads no more than 0.2; that for RFTN, 0.405; that for RSIH, no more than 0.2.
AHSG: the “one-hybrid fitness for binding parS DNA” value is no more than 0.2.
Next, QWQT: no more than 0.2.
Regarding QNCR, the “one-hybrid fitness for binding parS DNA” value was no more than 0.2.
RFVM: the “one-hybrid fitness for binding parS DNA” value is no more than 0.2.
With TVVA, the “one-hybrid fitness for binding parS DNA” value is no more than 0.2.
The result for IHSR reads no more than 0.2; that for ACCF, no more than 0.2; that for ASEY, no more than 0.2.
ACKN: the “one-hybrid fitness for binding parS DNA” value is no more than 0.2.
On to AHNG, for which the “one-hybrid fitness for binding parS DNA” value is no more than 0.2.
For VPAI, the “one-hybrid fitness for binding parS DNA” value was no more than 0.2.
Next, HPVT: no more than 0.2; CMRM: no more than 0.2; DRYD: no more than 0.2.
Next, GEEG: no more than 0.2; RWFM: no more than 0.2.
The result for PHVG reads no more than 0.2; that for PVST, no more than 0.2; that for QCSQ, no more than 0.2.
Take TTAS: the “one-hybrid fitness for binding parS DNA” value is no more than 0.2.
Next, LLTP: no more than 0.2.
Turning to GYGC, the “one-hybrid fitness for binding parS DNA” value is no more than 0.2.
Turning to YLTH, the “one-hybrid fitness for binding parS DNA” value was no more than 0.2.
Turning to YRAE, the “one-hybrid fitness for binding parS DNA” value stood at 0.216.
CMMR: the “one-hybrid fitness for binding parS DNA” value was no more than 0.2.
The result for EDGS reads no more than 0.2; that for NPPM, no more than 0.2.
The result for DTKW reads no more than 0.2; that for DGPR, no more than 0.2; that for RIHG, 1.02.
Next, HNDT: no more than 0.2; NSWA: no more than 0.2.
For the variant DPVV, the “one-hybrid fitness for binding parS DNA” value is no more than 0.2.
For LDMS, the “one-hybrid fitness for binding parS DNA” value is no more than 0.2.
For the variant TKMT, the “one-hybrid fitness for binding parS DNA” value was no more than 0.2.
For HGTF, the “one-hybrid fitness for binding parS DNA” value is no more than 0.2.
The result for SGKH reads no more than 0.2; that for SPKA, no more than 0.2; that for TTKR, no more than 0.2.
For the variant KFPA, the “one-hybrid fitness for binding parS DNA” value was no more than 0.2.
The result for PPAM reads no more than 0.2; that for PIMT, no more than 0.2; that for KMES, no more than 0.2.
Next, AAPN: no more than 0.2; KLHC: no more than 0.2; SSYK: no more than 0.2.
The result for CTVI reads no more than 0.2; that for VQES, no more than 0.2.
For the variant FHHR, the “one-hybrid fitness for binding parS DNA” value is no more than 0.2.
On to RLVQ, for which the “one-hybrid fitness for binding parS DNA” value is no more than 0.2.
Next, DQLN: no more than 0.2; PQYY: no more than 0.2; NNIE: no more than 0.2.
Turning to ATRA, the “one-hybrid fitness for binding parS DNA” value was no more than 0.2.
Next, KPAC: no more than 0.2; ILYR: no more than 0.2.
Consider KQSY, for which the “one-hybrid fitness for binding parS DNA” value is no more than 0.2.
The result for ARAW reads no more than 0.2; that for DHWV, no more than 0.2.
As for SQTN, the “one-hybrid fitness for binding parS DNA” value is no more than 0.2.
Next, RAPG: 0.569.
In the case of IPSR, the “one-hybrid fitness for binding parS DNA” value is no more than 0.2.
Regarding WLEC, the “one-hybrid fitness for binding parS DNA” value is no more than 0.2.
Next, RWKP: no more than 0.2.
Next, RAIM: 0.209.
The result for ALRI reads no more than 0.2; that for VRKM, no more than 0.2.
With QHPL, the “one-hybrid fitness for binding parS DNA” value was no more than 0.2.
As to GWDT, the “one-hybrid fitness for binding parS DNA” value was no more than 0.2.
In the case of TQPF, the “one-hybrid fitness for binding parS DNA” value was no more than 0.2.
The result for LPGA reads no more than 0.2; that for GIDG, no more than 0.2.
